{
  "source": "the supplement of paper PMC12632987",
  "binders": {"B1": {"name": "LC3A_free_8_2497 (protein)", "chain": "SRQEIVDRLLELIDELEEELEEKAKELGLSELDILDITLELGSLKAEIISNSDEPLEVIREELEEGLEEIIELTEELSEELEELAEEGAEKILEELEELE"}, "B2": {"name": "LC3A_3_1595 (protein)", "chain": "MEELVEEALERLRAAGLSEAVLEAARELLEALAERGYEEAIKELTEQLLELKDAPEELLVDMLKELLEIVETEDLSEEEIIEKIKELARLAKNESEIEEL"}, "B3": {"name": "LC3A_28_990 (protein)", "chain": "SANQAAADAFLAAARAAAAAGEATTLVLPVSKDATQADIDYIVDALREAAEVLAGVPGASIIIDLEAGVAQEHIDKLADAAEEVEERYPNVTVVIALDED"}, "B4": {"name": "LC3A_147_445 (protein)", "chain": "VKVEVTIGVLMKNKPEVGDELVEKLRETAEAAGAEVEVEVEREKIDENTVYLLIKLTLTTETREAAEALANKVIDTVEEFAEKHKDEILGYIISVEISEA"}, "B5": {"name": "LC3A_28_819 (protein)", "chain": "SGAEETIEKVKKQAEEAKNSKEDVLIEVDVSGDITVEEAERLMEVVREEAKELAKKHKVYIVINFTEPVSQEVLDLISDKADEIEEEIPNVSVIIALPEE"}, "B6": {"name": "LC3A_59_2029 (protein)", "chain": "SAFFEAVAAEIRANKDDIEALARTILDGLEAVKDDPEALERLKAAIVATLVELGLLSRELAEELMEEAEEIVKTLEDREEALAAILEELRVLLNEEEIEE"}, "B7": {"name": "LC3A_3_1909 (protein)", "chain": "AEEKIEELRKLAKELGHSEEVIELAEKAAELLLSVGNEEGFELLKEAVKALASLSEEDQLAFLKDLLEELEKNKNDKEKQLEAAREFLRLAKNAAEIIEI"}, "B8": {"name": "LC3A_28_763 (protein)", "chain": "MSIEEEVEEAIKKAKEAKKEGKETVITIKVPAGATQEDVDIVIEGMEEIAEITKDMKRTTIIIDIEAGVPQENIDRLLDHGEEIEKKYPNVTVIFALDED"}, "B9": {"name": "LC3A_127_210 (protein)", "chain": "EKEELLKKGIELAEEALKAAQEIPKKGEEALKKAEELLKELIKVLAKLPELKEALEDAKQALEQAKEIPKLDEAAKEEAIEQIEMILEGIRIDLELALLK"}, "B10": {"name": "LC3A_28_1120 (protein)", "chain": "STAEEIIKKAREQVEAMIASGEEEVIEVEIPGSLSQEEVERVAKEVAKLVAEAAKKVKVNLVIDLDASVSQEKIDIIADIAEELEKAYPNVNVIIALEEK"}, "B11": {"name": "LC3A_147_461 (protein)", "chain": "KIYEVTLDVLVKNLTEEIKKFFEELAEEIKKKVPNAKVELKFEQDPENPNETLITLTVTVETKEDAEKILDIVDEKLDEFEKKFGDNIIASMISIEEIEE"}, "B12": {"name": "LC3A_28_1075 (protein)", "chain": "SEVEEENEKILKEAKEAREKGEPAVITIEIGEEDTEEDIEKKLETIREVAEILKDVKGAAIIIDLEGELALSRLDEVAELAEELEKKYPNLTVIIALDDE"}, "B13": {"name": "LC3A_147_451 (protein)", "chain": "KLYEITVDVLFKNDPELAEEVEEEIRAIAEKHGGEVEVEREEEQETPTTTLYYVRVTIKLEDREKALAAEDEISALLDRVAEEHPEKFLGSAISIEEIEV"}, "B14": {"name": "LC3A_3_1613 (protein)", "chain": "MEELIKENLERLKAAGFSEKVIEAARKVLEALAERGYEEAMETLTEKLLELKDVDEELIIETLEEILRKVEEEDLSEEEVIKVIEEEFRVARLESEIEEL"}, "B15": {"name": "LC3A_3_1356 (protein)", "chain": "MKELIEKALERLRKAGFSEEVLKAAREAFEALAEQGHEEGIERLTEALLKHKDAPEETLLRALENLLRELKENPNLTQEEVEELIKLVDSELAIEELEEE"}, "B16": {"name": "LC3A_3_1846 (protein)", "chain": "MEEILERALALLEELGRSPEVRAAARALLEALRERGYEEAAEVLLEKLEELEDVSDEILLAMLEELLRLVTEERLSEEETIEAIEELARTALNESEIEEL"}, "B17": {"name": "LC3A_59_2031 (protein)", "chain": "DAEIAAYVAALRAAKDDEEAMARIILDGFREFKDDPEKLAALKAALQATLVELGLLSPELAAELLDEAEEIVKTLEDEEEALKEVLRALRVALAEEEIEE"}, "B18": {"name": "LC3A_28_897 (protein)", "chain": "MSALETAEKALEEVKKAVEEGNQEPLVLEVKAPSTEEDTEKLIELLEKIAEEASKLKGVTIIIDIDESVSEENRDRLIDKAEELEEKYPNVTVIIALPES"}, "B19": {"name": "LC3A_free_15_2129 (protein)", "chain": "AEVEKLKKEIAEKFREIADLLLEAGELLSAEDTKKLIDLLDEAYDAFFESPELALEKVKELAKYLEELKKKKPEAKEALEKLLEEVKKLAEALKKLIEAE"}, "B20": {"name": "LC3A_132_323 (protein)", "chain": "SEEKAKKLKEEILKLIEEAEKNIDNLEKVEELVKKIRELAKEAKKELSPEEVAEIFDEAADKADEASLKALEAGKEDVALLLDGLSVELAAESIRAEEKI"}, "B21": {"name": "LC3A_23_608 (protein)", "chain": "KYLITADIGLVASPEEAAAAEARARATLAAFLAKHADKIVESRLEVEREALPDGTTLLLIRLEIVVDVSEEEAKAIAEELETALSEALPDAVISVSVEKL"}, "B22": {"name": "LC3A_3_1808 (protein)", "chain": "MEERLEEVIKLLKEAGHSEETIKAFLEAAEALKEKGYEEALETLLELARELVDLPSELLLEMFEDVLELVETSDDSEEEITERIREIASTYRHEAEIEEL"}, "B23": {"name": "LC3A_28_1058 (protein)", "chain": "MSIEEQLEKALEEAKEAVKKGEEALVELKINKDSTEEDVEKVLETMKEIAELTKDLPSVSIVVDVDHENKEEVTKKVSELGDELEKKYPNVTVIIALSEE"}, "B24": {"name": "LC3A_78_2087 (protein)", "chain": "KKKAIIAHTPEAKEEAEREAEKLKETYEVTLVDISELEKELEKAKDYEEVLVIIHAKDLDTVLKNIEKVKKIFKDYKQSEIIEIDEETGIYTGIVYLEKK"}, "B25": {"name": "LC3A_3_1423 (protein)", "chain": "SEELLKEAEEVLKEAGLSEEAIEAVLRLIKKAIEAGALEEVEELIEVLKEAKDVSSEEVLEAAEEALRRIEEEGVPIEEALKYFISELRVLILEKEIEEL"}, "B26": {"name": "LC3A_127_170 (protein)", "chain": "KLRELLEKLREVLEEALELLDEPDYDLEELEKLLEEAEKLAKEILELDPRAEPLLEDVKQAKELLKQLKKASPEEQEELREQLSMVLDGALIEVDLLLLR"}, "B27": {"name": "LC3A_3_1430 (protein)", "chain": "AEEILEEAREVLEEAGFDEETREAVLELLELALEAGEFEEAEELIEELKEAENVDSERVLEAAEEALRKIKEEGVPIKEALEEFIEELRVLRLEEEIEEL"}, "B28": {"name": "LC3A_28_1318 (protein)", "chain": "GSIEAELARARAEADAAAAAGEDILLEVKVTGSTTLEEALALMEELERIAERYAPTHKVSIVIDVDGGVSQEVIDAIADKGEEIEERYPNVTVIIALDEN"}, "B29": {"name": "LC3A_28_1138 (protein)", "chain": "SEIVEKAKKQIEEDAEADKNEKDVLLNVTLTGSITVEEAKEVMEIVEEKVEELKDKEKIYVVVTAEEPISQEVLDTITEKAEEIEKKFPNVSVIIALPED"}},
  "note": "Whole data set: some 2,300 sequences, median “median log2 fold change of GCK-ALFA target abundance (FLAG IP / Myc IP barcode read proportion)” near 0.095, cut for the lowest 2% near -0.47. Some of the results follow.",
  "data": [
    {"target": "MAP1LC3A, Q9H492", "assay": "median log2 fold change of GCK-ALFA target abundance (FLAG IP / Myc IP barcode read proportion) (log2 ratio); each designed protein is fused to an ALFA-tag nanobody in HEK293 cells to bring the named protein to FLAG-tagged glucokinase (GCK); Myc marks an untargeted standard; higher = target protein stabilised (more abundant)", "conditions": "target protein: 3xFLAG-MCP-GCK-ALFA reporter; HEK293 landing pad (RPLP)", "method_in_brief": "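An ALFA-nanobody-fused binder library was recombined into HEK293 landing-pad cells and induced with 2 μg mL^−1 doxycycline. Cells were transfected with a plasmid expressing a FLAG-tagged target and a Myc-tagged standard. After 48 h, lysates underwent anti-FLAG and anti-Myc immunoprecipitation, and circular RNA barcodes were reverse transcribed, amplified and sequenced. Target abundance is the per-binder median log2 ratio of FLAG to Myc barcode read proportions. Barcodes needed ≥10^−7 proportion in both replicates, binders ≥3 barcodes per replicate, and a 10^−6 pseudocount was added; the two replicates were pooled.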", "values": [
      {"binder": "B1", "median log2 fold change": -0.679},
      {"binder": "B2", "median log2 fold change": 0.219},
      {"binder": "B3", "median log2 fold change": 0.218},
      {"binder": "B4", "median log2 fold change": -0.265},
      {"binder": "B5", "median log2 fold change": -0.287},
      {"binder": "B6", "median log2 fold change": 0.204},
      {"binder": "B7", "median log2 fold change": 0.329},
      {"binder": "B8", "median log2 fold change": -0.0857},
      {"binder": "B9", "median log2 fold change": 0.238},
      {"binder": "B10", "median log2 fold change": -0.138},
      {"binder": "B11", "median log2 fold change": -0.0762},
      {"binder": "B12", "median log2 fold change": -0.0901},
      {"binder": "B13", "median log2 fold change": -0.235},
      {"binder": "B14", "median log2 fold change": 0.22},
      {"binder": "B15", "median log2 fold change": 0.194},
      {"binder": "B16", "median log2 fold change": 0.152},
      {"binder": "B17", "median log2 fold change": 0.324},
      {"binder": "B18", "median log2 fold change": -0.276},
      {"binder": "B19", "median log2 fold change": 0.141},
      {"binder": "B20", "median log2 fold change": 0.243},
      {"binder": "B21", "median log2 fold change": -0.438},
      {"binder": "B22", "median log2 fold change": 0.0777},
      {"binder": "B23", "median log2 fold change": -0.699},
      {"binder": "B24", "median log2 fold change": -0.366},
      {"binder": "B25", "median log2 fold change": 0.28},
      {"binder": "B26", "median log2 fold change": 0.086},
      {"binder": "B27", "median log2 fold change": 0.0453},
      {"binder": "B28", "median log2 fold change": 0.0847},
      {"binder": "B29", "median log2 fold change": -0.247}
    ]}
  ]
}
